{
  "source": "the supplement of paper PMC3334620",
  "note": "The full ranking holds about 33,000 sequences; the median of “E-score (-0.5 to 0.5)” is about -0.054, and the highest 2% start at about 0.35. Some of the results follow.",
  "data": [
    {"molecular_target": "T1, Stb5 (UniProt P38699)", "T1 sequence": "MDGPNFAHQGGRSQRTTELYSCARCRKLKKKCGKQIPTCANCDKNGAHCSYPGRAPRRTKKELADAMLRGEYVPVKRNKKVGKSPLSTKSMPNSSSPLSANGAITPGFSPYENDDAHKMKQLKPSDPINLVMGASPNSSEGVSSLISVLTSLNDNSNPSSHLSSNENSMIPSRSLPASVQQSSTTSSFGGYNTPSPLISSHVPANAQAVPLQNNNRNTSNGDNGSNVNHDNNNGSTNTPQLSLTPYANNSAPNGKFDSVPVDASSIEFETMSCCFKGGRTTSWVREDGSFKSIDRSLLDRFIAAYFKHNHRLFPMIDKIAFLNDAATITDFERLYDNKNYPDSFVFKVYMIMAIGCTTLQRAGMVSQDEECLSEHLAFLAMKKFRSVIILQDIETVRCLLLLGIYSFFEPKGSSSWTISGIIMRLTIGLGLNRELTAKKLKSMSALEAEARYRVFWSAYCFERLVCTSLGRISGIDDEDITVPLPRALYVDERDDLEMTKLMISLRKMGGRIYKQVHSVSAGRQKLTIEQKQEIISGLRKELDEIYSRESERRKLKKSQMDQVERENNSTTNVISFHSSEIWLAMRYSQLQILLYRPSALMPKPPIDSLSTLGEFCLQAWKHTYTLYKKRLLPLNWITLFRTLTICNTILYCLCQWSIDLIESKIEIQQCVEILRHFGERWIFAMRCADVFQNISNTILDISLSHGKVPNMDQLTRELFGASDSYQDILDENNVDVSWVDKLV", "assay": "PBM E-score (8-mer binding enrichment) (E-score (-0.5 to 0.5)); higher = stronger / more preferred TF binding; most listed sequences are background and not binding sites", "details": "protein concentration: 200 nM; construct: GST-full length", "summary_of_the_method": "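Yeast transcription factors, full-length or as DNA-binding domains, were expressed with a GST tag using PURExpress in vitro transcription/translation. At about 100-200 nM they were applied to universal all-10-mer Agilent arrays, double-stranded by primer extension on fresh or once-stripped slides. Fluorescent anti-GST detected bound protein, and masliner normalised the scans. E-scores for ungapped eight-base words, pooled with reverse complements, came from the Universal PBM Analysis Suite.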", "values": [
      {"sequence": "ACGGTCGG", "PBM E-score": 0.313},
      {"sequence": "CTAGAAAC", "PBM E-score": -0.268},
      {"sequence": "GGTGCCGA", "PBM E-score": 0.292},
      {"sequence": "GAATATAA", "PBM E-score": -0.115},
      {"sequence": "AGGAGGCC", "PBM E-score": -0.207},
      {"sequence": "CTCGGGTC", "PBM E-score": 0.0646},
      {"sequence": "CGGTAATA", "PBM E-score": 0.457},
      {"sequence": "GATACTAC", "PBM E-score": 0.0343},
      {"sequence": "ATAGCTTC", "PBM E-score": -0.0602},
      {"sequence": "AGTAACCC", "PBM E-score": -0.0479},
      {"sequence": "AAGCCATT", "PBM E-score": -0.112},
      {"sequence": "AACTATTG", "PBM E-score": -0.125},
      {"sequence": "TTACGAAA", "PBM E-score": -0.0991},
      {"sequence": "CCCAAAGC", "PBM E-score": -0.0121},
      {"sequence": "AGTGACAA", "PBM E-score": -0.26},
      {"sequence": "CCTCTCCG", "PBM E-score": -0.171},
      {"sequence": "TCACGACA", "PBM E-score": -0.207},
      {"sequence": "ACGACTCG", "PBM E-score": -0.226},
      {"sequence": "AGTAGGCA", "PBM E-score": -0.192},
      {"sequence": "AAGACGCT", "PBM E-score": -0.221},
      {"sequence": "TATGAACA", "PBM E-score": -0.124},
      {"sequence": "GCGAGGCA", "PBM E-score": -0.151},
      {"sequence": "AAATGGAA", "PBM E-score": -0.261},
      {"sequence": "ATTTAATA", "PBM E-score": 0.0634},
      {"sequence": "GCGCTACC", "PBM E-score": 0.071},
      {"sequence": "AAGAAGCA", "PBM E-score": -0.0294},
      {"sequence": "TTATCAAA", "PBM E-score": -0.03},
      {"sequence": "CGAGAAAA", "PBM E-score": -0.00605},
      {"sequence": "CTAATCGC", "PBM E-score": -0.0503},
      {"sequence": "AGTAATAT", "PBM E-score": 0.126},
      {"sequence": "CTCAGACC", "PBM E-score": -0.129},
      {"sequence": "GTGAGGTA", "PBM E-score": -0.158},
      {"sequence": "CAGCCACC", "PBM E-score": -0.0335},
      {"sequence": "CAGGGCTC", "PBM E-score": -0.306},
      {"sequence": "CACAAAAG", "PBM E-score": 0.0345},
      {"sequence": "AAAACTGA", "PBM E-score": -0.0956},
      {"sequence": "GATGGCAC", "PBM E-score": 0.0752},
      {"sequence": "AGTCTGAC", "PBM E-score": -0.241},
      {"sequence": "GGTGGGTA", "PBM E-score": 0.126},
      {"sequence": "CGCGACCA", "PBM E-score": 0.0407},
      {"sequence": "CACGATTA", "PBM E-score": -0.0734},
      {"sequence": "ATCCTTCG", "PBM E-score": 0.106},
      {"sequence": "CGTAGCGA", "PBM E-score": 0.067},
      {"sequence": "ACTCGAAT", "PBM E-score": -0.174},
      {"sequence": "TCAGCGAA", "PBM E-score": -0.125},
      {"sequence": "CAGCTTCA", "PBM E-score": -0.212},
      {"sequence": "ATTCTCCG", "PBM E-score": 0.341},
      {"sequence": "AAACACGA", "PBM E-score": -0.121},
      {"sequence": "AGATTATA", "PBM E-score": 0.0725},
      {"sequence": "ATTTTGTA", "PBM E-score": -0.0499},
      {"sequence": "CACACGAG", "PBM E-score": -0.298},
      {"sequence": "CCGCAAGG", "PBM E-score": 0.182},
      {"sequence": "ATTGCGGA", "PBM E-score": 0.0931},
      {"sequence": "GAGTCCAC", "PBM E-score": 0.0155},
      {"sequence": "CTAACGCA", "PBM E-score": 0.118},
      {"sequence": "CCCCAGAC", "PBM E-score": -0.217},
      {"sequence": "ACGCAACG", "PBM E-score": -0.0532},
      {"sequence": "ATATAGAC", "PBM E-score": -0.0158},
      {"sequence": "CACCGTAA", "PBM E-score": 0.115},
      {"sequence": "ACTCAAAA", "PBM E-score": -0.0518},
      {"sequence": "CACCTCGA", "PBM E-score": -0.147},
      {"sequence": "AGATGGAT", "PBM E-score": -0.192},
      {"sequence": "AGTCGTTC", "PBM E-score": -0.25},
      {"sequence": "ATTAGAGG", "PBM E-score": -0.0978},
      {"sequence": "ATTCTTAC", "PBM E-score": -0.0134},
      {"sequence": "CCCAGGTC", "PBM E-score": -0.149},
      {"sequence": "CCTGCGCC", "PBM E-score": -0.0579},
      {"sequence": "TCACTGAA", "PBM E-score": -0.0284},
      {"sequence": "AAAACTCG", "PBM E-score": -0.0572},
      {"sequence": "CATCTCTC", "PBM E-score": 0.0857},
      {"sequence": "CCTCGACA", "PBM E-score": -0.246},
      {"sequence": "CTGTCAGA", "PBM E-score": -0.207},
      {"sequence": "CTACAGTA", "PBM E-score": -0.125},
      {"sequence": "CTGCAATC", "PBM E-score": -0.0884},
      {"sequence": "ATCCGTAG", "PBM E-score": 0.0937},
      {"sequence": "TAAGATGA", "PBM E-score": -0.202},
      {"sequence": "GACAATAC", "PBM E-score": 0.0556},
      {"sequence": "ATGGAGAA", "PBM E-score": -0.116},
      {"sequence": "AGAACGGA", "PBM E-score": 0.267},
      {"sequence": "AGTCCGAC", "PBM E-score": 0.436},
      {"sequence": "GGAAATAC", "PBM E-score": 0.162},
      {"sequence": "AGCGTTAC", "PBM E-score": -0.173},
      {"sequence": "AGATCTCA", "PBM E-score": -0.223},
      {"sequence": "GCTCGATA", "PBM E-score": -0.00732},
      {"sequence": "CGGGGTCC", "PBM E-score": 0.221},
      {"sequence": "GAGAACGA", "PBM E-score": -0.21},
      {"sequence": "AAGGGTCG", "PBM E-score": 0.00304},
      {"sequence": "CATCGACG", "PBM E-score": 0.0157},
      {"sequence": "AGGCATTA", "PBM E-score": 0.00131},
      {"sequence": "GGCTGTAA", "PBM E-score": -0.129},
      {"sequence": "GTAGTGAC", "PBM E-score": 0.0694},
      {"sequence": "CGCATCCA", "PBM E-score": 0.137},
      {"sequence": "TCTCTGCA", "PBM E-score": -0.11},
      {"sequence": "AAGTTGTA", "PBM E-score": -0.189},
      {"sequence": "CCACATCG", "PBM E-score": -0.0333},
      {"sequence": "CGGGGATA", "PBM E-score": 0.478},
      {"sequence": "ACGCCACC", "PBM E-score": -0.0994},
      {"sequence": "ATAATTTG", "PBM E-score": 0.0923},
      {"sequence": "AAACAACA", "PBM E-score": -0.264},
      {"sequence": "CGATTATC", "PBM E-score": 0.111},
      {"sequence": "TCTGAAGA", "PBM E-score": -0.164},
      {"sequence": "ATAGCTAC", "PBM E-score": -0.279},
      {"sequence": "CCCGTTAA", "PBM E-score": 0.129},
      {"sequence": "ACAATAAA", "PBM E-score": -0.0791},
      {"sequence": "ACGACGCT", "PBM E-score": 0.0232},
      {"sequence": "GCTCGAGA", "PBM E-score": -0.227},
      {"sequence": "AACATTGG", "PBM E-score": -0.213},
      {"sequence": "AGGTGTTA", "PBM E-score": 0.381},
      {"sequence": "AGACATCA", "PBM E-score": -0.0953}
    ]}
  ]
}
